# In all, about 1,300 compounds went through this assay and about 30 (2%) were called active. Not shown: some 10% with an inconclusive outcome. The call rests on the fitted dose curve; in most records, active means well fitted inhibition curve with a large enough effect; inconclusive means small, poorly fitted or top-dose-only effect; inactive means flat fitted curve, though single readings scatter. This is one part of the list.
# Assay: qHTS for antagonists of the Thyroid Stimulation Hormone Receptor: Hit Validation in HTRF Activity in a Luteinizing Hormone Receptor Cell Line
# Conditions: LHR-expressing cell line, cAMP HTRF, antagonist mode; series mostly up to 58 µM; activity change, negative = inhibition: at the top concentration
# Procedure, shortened: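 HEK 293 cells stably expressing LH receptor, in DMEM with 10% FCS and 100 uM RO 20-1724, incubated with compound 30 min at room temperature. cAMP measured by competitive HTRF (anti-cAMP cryptate vs cAMP-d2), excitation 330 nm, emissions 615 and 660 nm.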
# On the % scale 0 is the no-effect control and ±100 the full control effect; potency means the concentration at half of the fitted maximal effect.
Structure (SMILES),"activity change, negative = inhibition",Potency
Clc1cc(Cl)c(OCc2nc(-c3ccccn3)no2)cc1Cl,inactive: 0.0616%,–
CCCCOCCCNc1ncnc2c1[nH]c1ccccc12,inactive: -2.7%,–
CN(C)c1ccc(NC(=S)c2ccc3ccccc3n2)cc1,inactive: 1.72%,–
O=C(OCCc1cc2ccccc2c(=O)o1)c1ccccc1C(F)(F)F,inactive: -0.186%,–
O=C(CSc1nnc(NC(=O)c2cccc(Br)c2)s1)NCC1CCCO1 (configuration not stated),inactive: -1.19%,–
Cc1nc2ccccc2n1CC(=O)N/N=C\C=C\c1ccccc1,inactive: 1.98%,–
COc1cccc(N2CCN(c3ncnc4c3cnn4-c3ccc(C)cc3C)CC2)c1,–,active: 33.8 µM
COC(=O)c1ccc(COc2cc(O)c3c(c2)OC(C)(C)CC3=O)cc1,inactive: -3.69%,–
Cc1ccc2nc(-c3ccc(NC(=O)c4cccnc4)cc3)oc2c1,inactive: -8.92%,–
O=C(c1ccc2c(c1)N(Cc1ccccc1)C(=O)c1ccccc1S2)N1CCCC1,inactive: 0.549%,–
Cc1cc(NC(=O)c2ccccc2)c(Cl)cc1N,inactive: 1.15%,–
COc1ccc(CCNC2=C(Cl)C(=O)N(CCc3ccccc3)C2=O)cc1OC,inactive: -9.23%,–
C=CC[C@H](CC(=O)N(CCO)Cc1ccccc1)C(=O)N[C@H](COC(=O)[C@@H](CC=C)Cc1ccc(F)cc1)C(C)(C)C,inactive: -3.08%,–
CCC1Sc2ccc(S(=O)(=O)Nc3ccc(OC)c(OC)c3)cc2NC1=O (configuration not stated),inactive: -2.27%,–
CN(C)c1ccc(N/C=C/C(=O)C(F)(F)F)cc1,inactive: -1.57%,–
Cc1ccc2cccc(Oc3ncnc4scc(-c5ccccc5)c34)c2n1,inactive: -7.58%,–
CC(=O)c1c(C)[nH]c(C(=O)COc2cc(C)ccc2C(C)C)c1C,inactive: -1.76%,–
CCOc1ccccc1NC(=O)C(NCCc1ccc(OC)cc1)c1ccccc1 (configuration not stated),inactive: -1.46%,–
COc1ccc(C)cc1-n1nnnc1SCc1cc(=O)n2cc(C)ccc2n1,inactive: -3.61%,–
CCN(Cc1ccccc1)c1ccc(/C=N/NC(=O)c2cccc(S(=O)(=O)N3CCOCC3)c2)cc1,inactive: -2.74%,–
COc1ccc(C(=O)c2ccccc2)c2c(O)ccc(C(=O)c3ccccc3)c12,inactive: -5.33%,–
Cc1nc2ccc(C(=O)Nc3ccc4nc[nH]c4c3)cc2[nH]1,inactive: 0.258%,–
